Laboratory results published in PubChem BioAssay (NCATS).
The list shows a part of the results. The main result of the screen is listed elsewhere. These columns were measured beside it and carry no call. The list favours compounds with an active or inconclusive main result. Words in brackets tell the shape of the fitted curve; partial curves, single points and poor fits give uncertain potencies.

assay: qHTS Assay for Lipid Storage Modulators (AID 1519); settings: Drosophila S3 cells, BODIPY lipid droplet/cell ratio, laser cytometry; measured here: cell number channel AC50; cells loaded with oleic acid
In short: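 Cells seeded at 5,000 per well were treated with compounds over a concentration series and loaded with oleic acid (400 uM, as added). Lipid droplet fluorescence (488 nm excitation, 500-530 nm channel) was read by laser-scanning cytometry and normalized to 20 uM Triacsin C.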
Tags describe the fitted curve by direction and shape.

Row | SMILES | AC50
1 | O=C(O)COc1cccc(-c2ocnc2-c2nc(-c3ccccc3)c(-c3ccccc3)o2)c1 | 15.8 µM [rising, partial curve]
2 | C#CCCCCCCCCCCCCCCCC(=O)O | 25.1 µM [rising, partial curve, poor fit]
3 | COc1cccc(Cn2c(=O)c(-c3cccc(C#N)c3)nc3cnc(Nc4ccccc4)nc32)c1 | 4.47 µM [rising, partial curve]
4 | CC(C)=CCc1c2c(c3occ(-c4ccc(O)cc4)c(=O)c3c1O)C=CC(C)(C)O2 | 31.6 µM [falling, single point]
5 | COc1ccc(Oc2ncc3ncc(=O)n(CCC#N)c3n2)cc1 | 0.112 µM [rising, full curve, poor fit]
6 | Fc1ccc(Nc2ccnc(-c3ccccc3C(F)(F)F)n2)cc1 | 1 µM [rising, full curve, poor fit]
7 | COc1ccccc1CNc1cc(-c2ccccc2OC)ncn1 | 1.58 µM [rising, full curve, poor fit]
8 | Cc1nc2cncnc2n(Cc2ccccc2Cl)c1=O | 2.24 µM [rising, full curve, poor fit]
9 | CN1CCN(c2nc(-c3cccnc3)nc3ccccc23)CC1 | 3.98 µM [rising, partial curve, poor fit]
10 | O=S(=O)(c1ccccc1)N1CCC[C@@]2(CCN(Cc3ccccc3)C2)C1 | 8.91 µM [rising, single point]
